Screen size: about 370,000 compounds; about 150 (0.041%) were called active. Inconclusive means that the source gave no clear call. Such entries were picked first, then a sample of the others. The call rests on the fitted dose curve; in most records, active means well fitted inhibition curve with a large enough effect; inconclusive means small, poorly fitted or top-dose-only effect; inactive means flat fitted curve, though single readings scatter. Potencies of inconclusive entries are left out as doubtful fits.
Biological target: Beta-lactamase (Escherichia coli (strain K12)) (UniProt P00811)
Sequence of UniProt P00811 (P00811 whole entry, looked up): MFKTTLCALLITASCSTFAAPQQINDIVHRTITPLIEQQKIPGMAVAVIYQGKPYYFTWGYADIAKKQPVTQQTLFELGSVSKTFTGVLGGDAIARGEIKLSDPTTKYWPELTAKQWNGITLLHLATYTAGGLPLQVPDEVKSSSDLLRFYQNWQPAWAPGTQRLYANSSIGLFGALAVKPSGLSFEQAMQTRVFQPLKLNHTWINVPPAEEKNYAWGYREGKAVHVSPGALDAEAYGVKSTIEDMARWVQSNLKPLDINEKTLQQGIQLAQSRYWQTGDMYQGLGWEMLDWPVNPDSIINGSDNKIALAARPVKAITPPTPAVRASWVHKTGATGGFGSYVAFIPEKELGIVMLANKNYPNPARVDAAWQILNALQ
Experiment: qHTS Inhibitors of AmpC Beta-Lactamase (assay with detergent); further: nearly all actives have a fitted effect of over 25% in size
Details: AmpC hydrolysis of nitrocefin, absorbance 480 nm, 0.01% Triton; series mostly up to 114 µM
In short: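 20 mM phosphate pH 7.0 + 0.01% (detergent screen) or 0.0001% Triton X-100; 5.3 nM AmpC reagent; cpd preinc 15 min RT; nitrocefin (800 uM stock) to start; A480 q20 s × 4 min; Activity was normalised to no-enzyme and no-compound control wells.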
Potency means the concentration at half of the fitted maximal effect; tags describe the fitted curve by direction and shape.

How did the Potency turn out when `O=S(=O)(CC12C3C4C5C1C2C(Br)(C43)C51OCCO1)c1ccccc1` (stereo not drawn) was run?
The Potency was inconclusive [inhibitor, full curve].

How did the Potency turn out when `Cc1c(NC(=O)COC(=O)C23CC4CC(CC(O)(C4)C2)C3)c(=O)n(-c2ccccc2)n1C` was run?
The Potency was inconclusive [inhibitor, full curve, poor fit].

How did the Potency turn out when `O=C(NCCCN1CCOCC1)C1CCN(S(=O)(=O)c2cccc(Cl)c2Cl)CC1` was run?
Its Potency is inconclusive [inhibitor, full curve].

How did the Potency turn out when `CSc1ncccc1C(=O)OCc1nc2ccsc2c(=O)[nH]1` was run?
The Potency was inconclusive [inhibitor, full curve, poor fit].

Which Potency does the source give for `COc1ccc(NC(=O)c2cccc3c(=O)c4c([nH]c23)CCCC4)cc1` here?
Its Potency is “inactive”.

With `COCCNC(=S)N/N=C(\C)CCc1ccc2c(c1)OCO2` as the molecule, how does the Potency read?
Its Potency is inconclusive [inhibitor, full curve, poor fit].

Which Potency does the source give for `COc1ccc(OC)c(C2CC(=O)N3CN(c4cccc(Cl)c4)CSC3=C2C#N)c1` (stereo not drawn) here?
Its Potency is inconclusive [inhibitor, full curve, poor fit].

For `O=C(NCC1CCCO1)C1CCC(N2C(=O)c3ccccc3C2=O)CC1` (stereo not drawn), which Potency is on record?
The Potency was inconclusive [inhibitor, full curve, poor fit].

How did the Potency turn out when `Cc1ccc(C(=O)Nc2nccs2)s1` was run?
The Potency was inconclusive [inhibitor, full curve, poor fit].

Which Potency does the source give for `O=C1c2ccccc2NC2(CCCC2)N1N=C1CCCC1` here?
Its Potency is “inactive”.

With `COc1ccc(-n2cc(-c3ccccc3)[nH]c2=S)c(OC)c1` as the molecule, how does the Potency read?
Its Potency is “inactive”.

`CCOC(=O)c1c(C)[nH]c(C(=O)OCc2csc(CC(=O)Nc3ccccc3C)n2)c1C` was tested. Which Potency did it give?
Its Potency is inconclusive [inhibitor, full curve, poor fit].

Which Potency does the source give for `Cc1nc2c(=O)n(C)c(=O)n(C)c2nc1Cl` here?
The Potency was inconclusive [inhibitor, full curve, poor fit].

How did the Potency turn out when `COc1ccc(N2CCN(C(c3ccccc3OC)c3nnnn3C3CCCC3)CC2)cc1` (stereo not drawn) was run?
Its Potency is inconclusive [inhibitor, full curve, poor fit].

For `CCOC(=O)c1[nH]c2ccc(F)cc2c1N=C(C)N(CC)CC`, which Potency is on record?
Its Potency is inconclusive [inhibitor, full curve, poor fit].

With `CN1CCN(NC(=O)c2ccc(COc3ccccc3Br)o2)CC1` as the molecule, how does the Potency read?
Its Potency is inconclusive [inhibitor, single point].

With `CCC(C)(C)NC(=O)CCCSc1nc2ccccc2[nH]1` as the molecule, how does the Potency read?
Its Potency is inconclusive [inhibitor, single point].

With `COCCn1cc(C(=O)NCCCN2CCC(C)CC2)c2c3ccccc3n(C)c2c1=O` as the molecule, how does the Potency read?
Its Potency is inconclusive [inhibitor, full curve].

How did the Potency turn out when `Cc1cc(C)n(-c2nc(NC(C)C)nc(NC(C)C)n2)n1` was run?
The Potency was “inactive”.

`COc1ccc(-n2c(SCCN(C)C)nc3ccccc3c2=O)cc1` was tested. Which Potency did it give?
The Potency was “inactive”.

For `Cc1cc(NC(=O)COc2coc(CN3CCN(c4ccccc4F)CC3)cc2=O)no1`, which Potency is on record?
Its Potency is “inactive”.

With `CN1C(=O)CC(Nc2cccc3cccc(N)c23)C1=O` (stereo not drawn) as the molecule, how does the Potency read?
The Potency was “inactive”.

How did the Potency turn out when `Cn1c(=O)c2c(-c3ccccc3)n3c(c2n(C)c1=O)C(c1ccc([N+](=O)[O-])cc1)Nc1ccccc1-3` (stereo not drawn) was run?
Its Potency is “inactive”.

With `CCCCNC(=O)CSc1nc2ccccc2n1S(=O)(=O)c1ccc(Cl)cc1` as the molecule, how does the Potency read?
The Potency was inconclusive [inhibitor, full curve, poor fit].

How did the Potency turn out when `O=S(=O)(c1ccc2ccccc2c1)N1CCC(c2nc(-c3ccncc3)no2)CC1` was run?
The Potency was inconclusive [inhibitor, partial curve].

`O=C(OCC(=O)N1CCOCC1)c1ccccc1O` was tested. Which Potency did it give?
The Potency was inconclusive [inhibitor, full curve].

`O=C(N/N=C/c1ccc(COc2ccc(Br)cc2)o1)c1ccco1` was tested. Which Potency did it give?
Its Potency is inconclusive [inhibitor, partial curve, poor fit].

`CCCOc1ccc(N2C(=O)CC(N(CCc3ccc(OC)cc3)C(=O)c3cccc(F)c3)C2=O)cc1` (stereo not drawn) was tested. Which Potency did it give?
The Potency was inconclusive [inhibitor, full curve, poor fit].

With `COc1cc(C(=S)N2CCN(C)CC2)ccc1OCC(=O)NCc1ccccc1` as the molecule, how does the Potency read?
Its Potency is inconclusive [inhibitor, partial curve].

With `CCN(CC(=O)Nc1c(F)cccc1F)C(=O)c1cccc(S(=O)(=O)N2CCN(c3ccccc3)CC2)c1` as the molecule, how does the Potency read?
The Potency was inconclusive [inhibitor, partial curve].

With `O=C(NCCC(=O)N1CCN(c2ccccc2O)CC1)c1ccc(Cl)cc1` as the molecule, how does the Potency read?
The Potency was inconclusive [inhibitor, partial curve, poor fit].

How did the Potency turn out when `Cc1cc(C(=O)CCl)c(C)n1Cc1ccco1` was run?
Its Potency is “inactive”.

For `CN(C)C(CNc1ncnc2sc3c(c12)CCCCC3)c1ccco1` (stereo not drawn), which Potency is on record?
The Potency was inconclusive [inhibitor, single point].

How did the Potency turn out when `CC(=O)N1CCN(S(=O)(=O)c2cccc(C(=O)NNC(=O)COc3ccc(Cl)cc3C)c2)CC1` was run?
The Potency was inconclusive [inhibitor, full curve, poor fit].

How did the Potency turn out when `CCc1oc2ccccc2c1C(=O)c1cc(Br)c(O)c(Br)c1` was run?
The Potency was inconclusive [inhibitor, partial curve, poor fit].

With `CCCNC(=O)c1ccc(Cn2c(SCC(=O)NC(C)C)nc3ccccc3c2=O)cc1` as the molecule, how does the Potency read?
Its Potency is inconclusive [inhibitor, full curve, poor fit].

With `CC(C)=C(NC(=O)c1ccccc1)C(=O)N/N=C(\C)c1ccccc1O` as the molecule, how does the Potency read?
The Potency was inconclusive [inhibitor, full curve, poor fit].

`COc1ccc(/C=C/C(=O)c2ccccc2O)cc1CN1CCOCC1` was tested. Which Potency did it give?
The Potency was inconclusive [inhibitor, single point].

For `CCCCC(CC)Cn1c(N)c(C#N)c2nc3ccccc3nc21` (stereo not drawn), which Potency is on record?
The Potency was inconclusive [inhibitor, partial curve, poor fit].

How did the Potency turn out when `CS(=O)(=O)N(CC(N)=O)c1ccc2c(c1)OCO2` was run?
Its Potency is inconclusive [inhibitor, full curve, poor fit].

`CC(C)(C)CC(C)(C)NCC(O)COc1c(F)cc(Br)cc1F` (stereo not drawn) was tested. Which Potency did it give?
Its Potency is inconclusive [inhibitor, full curve, poor fit].

`CC/C(=C(\c1ccccc1)c1ccc(OCCN(C)C)cc1)c1ccccc1` was tested. Which Potency did it give?
Its Potency is inconclusive [inhibitor, full curve, poor fit].

For `COc1ccc(Cl)cc1NC(=O)c1nnn(CC(=O)Nc2ccc(C)c(C)c2)c1N`, which Potency is on record?
Its Potency is inconclusive [inhibitor, full curve, poor fit].

How did the Potency turn out when `CCOC(=O)/C(=C/Nc1ccccc1)[N+](=O)[O-]` was run?
The Potency was inconclusive [inhibitor, full curve, poor fit].

Which Potency does the source give for `COc1ccc(NC(=O)C(NC(=O)/C=C\c2ccc3c(c2)OCO3)c2ccc(C)cc2)cc1` (stereo not drawn) here?
Its Potency is “inactive”.

Which Potency does the source give for `CSc1ccc(-c2c(C#N)c(N)nc3c2CCCC3)cc1` here?
Its Potency is inconclusive [inhibitor, partial curve, poor fit].

How did the Potency turn out when `COc1ccc(Nc2nnc(C)c3ccccc23)cc1C(N)=O` was run?
Its Potency is inconclusive [inhibitor, full curve, poor fit].

How did the Potency turn out when `CCN(CC)c1ccc(N=Cc2c(O)n(-c3ccccc3C)c(=O)[nH]c2=O)cc1` was run?
The Potency was inconclusive [inhibitor, full curve, poor fit].

How did the Potency turn out when `CCN(C(=O)c1cccs1)c1nc(-c2ccc(OC)cc2)cs1` was run?
The Potency was “inactive”.

Which Potency does the source give for `COc1ccccc1NC(=O)CSc1nnc(COc2ccc(Cl)cc2)n1Cc1ccco1` here?
The Potency was inconclusive [inhibitor, full curve, poor fit].

Which Potency does the source give for `CCOc1ccc2nc(SCC(=O)NCc3ccc4c(c3)OCO4)[nH]c2c1` here?
The Potency was “inactive”.

Which Potency does the source give for `O=C(CN1C(=O)NC(Cc2c[nH]c3ccccc23)C1=O)Nc1ccccc1Br` (stereo not drawn) here?
Its Potency is inconclusive [inhibitor, full curve, poor fit].

With `CCc1ccc(OCc2nnc(SCC(=O)N3CCN(c4ccccc4)CC3)o2)cc1` as the molecule, how does the Potency read?
Its Potency is inconclusive [inhibitor, partial curve, poor fit].

Which Potency does the source give for `COc1cccc(C(=O)CSc2nc3ccccc3n2CC(=O)N2CCOCC2)c1` here?
Its Potency is inconclusive [inhibitor, full curve, poor fit].

For `COc1ccc(NC(=O)c2ccc(CNS(=O)(=O)c3cccc(OC)c3)cc2)cc1`, which Potency is on record?
The Potency was inconclusive [inhibitor, single point].

`CC(=O)c1ccc(N2Cc3ccccc3/C2=N\C(=O)Nc2ccc(Cl)cc2)cc1` was tested. Which Potency did it give?
Its Potency is inconclusive [inhibitor, partial curve, poor fit].

Which Potency does the source give for `CCCCCCCNC(=O)C1(CC2CC(c3cccc(Br)c3)=NO2)CCN(C(=O)c2cc(OCC)c(OCC)c(OCC)c2)CC1` (stereo not drawn) here?
Its Potency is inconclusive [inhibitor, full curve, poor fit].

`CCN(CC(=O)NCc1ccc(Cl)cc1)C(=O)CSc1cc(C)ccc1C` was tested. Which Potency did it give?
The Potency was inconclusive [inhibitor, full curve, poor fit].

Which Potency does the source give for `O=C(Nc1ccc2oc(-c3cccnc3)nc2c1)c1ccccc1F` here?
Its Potency is “inactive”.

How did the Potency turn out when `O=C(O)c1cccc(-c2nc3ccccc3[nH]2)c1` was run?
The Potency was inconclusive [inhibitor, full curve].

With `Fc1ccccc1COc1ccc(Br)cc1CNCc1ccncc1` as the molecule, how does the Potency read?
The Potency was “inactive”.

How did the Potency turn out when `Cc1ccc(-c2ccc(CCC(=O)O)n2NC(N)=S)cc1` was run?
Its Potency is inconclusive [inhibitor, single point].

For `O=C(N/N=C/c1ccco1)C1CC(=O)N(c2ccccc2)C1` (stereo not drawn), which Potency is on record?
The Potency was inconclusive [inhibitor, full curve, poor fit].

From PubChem BioAssay AID485294 (National Center for Advancing Translational Sciences (NCATS), 2010)
